# Measured values reported in PMC4336329 (PLoS ONE, 2015).
# Hit rate of the full screen: of about 310,000 compounds, about 2,200 (0.71%) showed an effect of 50% or more. The effect is printed as a negative number. The list shows a part of the results.
# Target: human ether-à-go-go-related gene (hERG) potassium channel (human, UniProt Q12809)
# Experiment: primary screen, population patch clamp on CHO cells stably expressing hERG
# Experimental: Briefly, Chinese hamster ovary (CHO) cells stably expressing the hERG channel were dislodged from tissue culture flasks and dispensed into PPC plates. […] During the recording, background leak currents were estimated by a 100 ms step to -80 mV from an initial holding potential of -70 mV and subtracted from the subsequent current measurement. The campaign was conducted in two phases using slight differences in recording protocol. In the first phase, the initial voltage pulse used a 100 ms step to -30 mV from a holding potential of -70 mV, a 2 s conditioning step to +25 mV, and a 2 s test step to -30 mV. During the second phase of the screen, the potential during the conditioning step was raised to +45 mV. In both phases of the campaign, a secondary voltage pulse was applied using the same parameters as the second phase initial pulse. The initial and secondary pulses were applied in the absence of compound, and upon application of 1 μM and 10 μM test concentrations. Small molecule effects on hERG current density were quantified by […].
# Chain of human ether-à-go-go-related gene (hERG) potassium channel (Q12809 whole entry, looked up): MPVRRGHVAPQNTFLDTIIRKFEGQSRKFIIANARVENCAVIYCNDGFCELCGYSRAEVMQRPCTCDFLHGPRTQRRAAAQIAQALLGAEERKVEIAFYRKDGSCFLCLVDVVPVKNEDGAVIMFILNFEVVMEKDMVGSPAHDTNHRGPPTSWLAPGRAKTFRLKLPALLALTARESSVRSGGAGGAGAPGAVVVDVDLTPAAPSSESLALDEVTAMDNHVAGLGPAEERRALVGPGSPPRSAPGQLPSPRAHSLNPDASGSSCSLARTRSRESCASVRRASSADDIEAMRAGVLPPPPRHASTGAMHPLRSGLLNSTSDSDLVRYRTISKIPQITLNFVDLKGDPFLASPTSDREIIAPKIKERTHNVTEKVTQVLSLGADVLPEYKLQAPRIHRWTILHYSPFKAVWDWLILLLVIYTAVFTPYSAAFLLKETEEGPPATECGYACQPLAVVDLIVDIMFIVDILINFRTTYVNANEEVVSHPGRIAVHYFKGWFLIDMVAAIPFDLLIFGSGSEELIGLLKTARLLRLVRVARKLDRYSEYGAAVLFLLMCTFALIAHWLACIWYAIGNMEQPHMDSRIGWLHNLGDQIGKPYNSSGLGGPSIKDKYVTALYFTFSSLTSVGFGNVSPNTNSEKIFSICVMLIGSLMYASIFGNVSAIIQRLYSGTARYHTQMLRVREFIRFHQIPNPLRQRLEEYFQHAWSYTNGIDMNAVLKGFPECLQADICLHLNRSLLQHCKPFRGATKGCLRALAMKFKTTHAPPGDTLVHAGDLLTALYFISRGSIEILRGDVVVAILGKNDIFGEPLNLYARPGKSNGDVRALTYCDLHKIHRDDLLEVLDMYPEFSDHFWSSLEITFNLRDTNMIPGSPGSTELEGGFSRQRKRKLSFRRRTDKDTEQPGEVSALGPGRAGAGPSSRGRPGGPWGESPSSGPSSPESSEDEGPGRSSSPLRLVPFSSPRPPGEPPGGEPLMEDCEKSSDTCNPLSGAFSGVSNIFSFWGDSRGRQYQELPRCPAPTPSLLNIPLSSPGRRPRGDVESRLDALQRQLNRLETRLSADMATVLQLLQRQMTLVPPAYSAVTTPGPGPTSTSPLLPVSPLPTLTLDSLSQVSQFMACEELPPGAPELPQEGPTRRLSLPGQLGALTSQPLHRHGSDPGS
row,SMILES,"hERG current change (%, negative = inhibition) at 1uM"
1,Cn1c(=O)[nH]c(=O)c2c1nc(Br)n2C/C=N/Nc1ccccc1,-1.05%
2,CCCCCC(=O)Nc1ccc(Cc2ccncc2)cc1,6.58%
3,CCOc1ccccc1/C=N/NC(=O)CNC(=O)COc1ccccc1,6.6%
4,COC1=C(C)C(O)=C(C(=O)/C=C/c2ccccc2)C(=O)C1(C)C,-0.663%
5,COc1ccc(CCNC(=O)Cn2nnc(-c3cccc(OC)c3OC)n2)cc1OC,8.26%
6,CC(=O)O/N=C/c1c(C)c(C=O)n2ccccc12,9.71%
7,C=CCOc1c(CNc2ccc3[nH]c(=O)[nH]c3c2)cccc1OC,11.7%
8,N/C(=N\OC(=O)CCc1ccccc1)c1ccc(Br)cc1,16%
9,COc1cc(Br)cc2cc(C(=O)N3CCN(c4ccccn4)CC3)c(=O)oc12,-14.2%
10,O=[N+]([O-])c1ccc(CCn2ccnc2)cc1,8.67%
11,CN(CC(=O)N1CCN(c2ccc(F)cc2)CC1)S(=O)(=O)c1ccc2c(c1)c(=O)n(C)c(=O)n2C,8.98%
12,COc1cccc(OCCNC(=O)c2cc([N+](=O)[O-])cc([N+](=O)[O-])c2)c1,9.35%
13,COc1cc(/C=C/C(=O)O)ccc1OS(=O)(=O)c1ccc(C)cc1,9.33%
14,CN1CCN(CC(=O)Nc2ccc(Oc3ccccc3)cc2)CC1,-18.4%
15,COc1ccc(/C=C(\C#N)C(=O)N2CCOCC2)cc1Br,3.88%
16,COc1ccc(C(=O)NCc2nnc(SCC(=O)N3CCc4ccccc43)o2)cc1OC,14.6%
17,CCN1CCN(CCOCCOc2ccccc2-c2ccccc2)CC1.O=C(O)C(=O)O,9.38%
18,COc1nc(OC)nc(N2CCC(C(=O)NCc3ccc(F)cc3)CC2)n1,-27.3%
19,O=C(CNC(=O)c1ccco1)OCc1ccc(C(=O)Oc2ccccc2)cc1,5.49%
20,O=C(NNC(=O)c1ccccc1F)c1ccco1,9.46%
21,O=C(NCCCN1CCN(c2ccccc2F)CC1)C1CC(=O)N(C2CCCC2)C1 (stereo not shown),7.06%
22,COc1ccccc1-c1nc(SCC(=O)NCC2CCCO2)c2c(=O)n(C)c(=O)n(C)c2n1 (stereo not shown),8.47%
23,COc1cc(/C=N\NC(=O)CC#N)ccc1OC/C=C/c1ccccc1,9.19%
24,Cc1nc(N2N=C(c3ccc(Cl)cc3)CC2c2ccco2)sc1C(=O)N(C)C (stereo not shown),8.62%
25,CC(C)CCNC(=O)C(c1cccnc1)N(Cc1ccccc1)C(=O)Cn1nnc2ccccc21 (stereo not shown),-5.55%
26,CC1CN(S(=O)(=O)c2cccc(C(=O)NNC(=O)C(C)Oc3ccccc3F)c2)CC(C)O1 (stereo not shown),-0.165%
27,CCOc1ccc(C(C)C)cc1S(=O)(=O)N1CCN(C(=O)c2ccco2)CC1,14.5%
28,Cc1ccc(C(=O)OCc2c(C)noc2C)cc1NC(=O)c1ccco1,4.25%

row,SMILES,"hERG current change (%, negative = inhibition) at 1uM"
1,CCOC(=O)C1=C(C)NC(=O)NC1c1ccccc1OCc1c(F)cccc1Cl (stereo not shown),1.29%
2,O=S(=O)(c1ccc(S(=O)(=O)n2cnc3ccccc32)cc1)N1CCCCCC1,13%
3,CCOc1ncccc1C(=O)Nc1cc(S(=O)(=O)N2CCOCC2)ccc1N1CCCC1,-10%
4,CCC(=O)c1c[nH]c(C(=O)NCc2ccco2)c1,1.3%
5,Cc1cc([N+](=O)[O-])ccc1NCc1ccccc1,4.76%
6,CCCn1nc2cc(C(=O)NC3CCc4ccccc43)ccc2c1OCC (stereo not shown),16.8%
7,Fc1cccc(C2CC(c3cccc(Br)c3)Nc3nnnn32)c1 (stereo not shown),10.6%
8,O=C(Nc1nc2c(F)cc(F)cc2s1)C1CCN(C(=O)c2ccc(F)cc2)CC1,11.4%
9,O=c1cc(-c2ccc(Cl)cc2)oc(=O)[nH]1,13.1%
10,O=C(NCCCn1ccnc1)Nc1cccc(Cl)c1,13.1%
11,O=C1NC(c2ccc(-c3ccccc3[N+](=O)[O-])o2)C(C(=O)c2ccc(F)cc2)C(O)(C(F)(F)F)N1 (stereo not shown),14.2%
12,O=C(OCC(=O)N1CCCCC1)c1c[nH]c(=O)[nH]c1=O,3.75%
13,COc1ccc(NC(=O)C(c2ccccc2)N2CCN(c3ccccn3)CC2)cc1Cl (stereo not shown),-5.81%
14,COc1ccc(NC(=O)CN(C)C(=O)C2CC(=O)N(Cc3ccc(C)cc3)C2)cc1 (stereo not shown),16.7%
15,Cc1cc(NC(=O)c2cc(-c3cccc(OCC(C)C)c3)nc3ccccc23)no1,13.3%
16,NC(=O)c1ccc(NC(=O)c2ccc(COc3ccc(F)cc3)o2)cc1,6.99%
17,CC(=O)c1ccc(N2CCN(C(=O)Cc3cccs3)CC2)cc1,2.08%
18,Cc1ccc(CNC(=O)c2coc(=O)c3ccccc23)o1,17.5%
19,COc1ccc(-n2cc([N+](=O)[O-])c(=O)c3ccc(Cl)cc32)cc1,3.6%
20,CC1(C)CC(=O)C(=CN2CCOCC2)C(=O)C1,9.47%
21,CC(C)(C)c1ccc(S(=O)(=O)N2CCN(Cc3cc4c(cc3O)OCO4)CC2)cc1,5.45%
22,O=C(c1ccc(CS(=O)(=O)c2ccc(Br)cc2)o1)N1CCOCC1,7.27%
23,COc1ccc(-c2noc(CN(C)S(=O)(=O)c3ccccc3)n2)cc1OC,8.37%
24,COCCn1c(C)cc(C(=O)COC(=O)CCc2ccc(S(=O)(=O)N3CCOCC3)cc2)c1C,7.56%
25,CCOC(=O)c1c(C)c(-c2ccccc2)n(CC(=O)N2CCN(C)CC2)c1C,6.27%
26,O=C(O)c1cc(S(=O)(=O)N2CCCCCC2)c(Cl)cc1Cl,10.5%
27,Cn1cc([N+](=O)[O-])c(C(=O)Nc2ccn(Cc3c(F)c(F)cc(F)c3F)n2)n1,-3.6%
